Experimental data: the supplement of paper PMC10126150
Values marked as one replicate rest on one cluster of the flow cell; about a third of the high ones do not repeat.

system: ATP; test: switch fluorescence ratio, 500 uM ATP over buffer (Cy3 cluster intensity, sum of 5 cycles each) (fold (ratio)); higher = stronger signal-on switching upon ATP binding; sequences stand for … in TCGTCGGCAGCGTCAGATGTGTATAAGAGACAGTTTTTTTTTTTTTTTTTTTTTTTTT…TC; settings: aptamer strand: ATP DNA aptamer (quencher-CACCTGGGGGAGTATTGCGGAGGAAGG + anchor), 100 nM annealed; ATP concentration: 500 uM; one replicate
In short: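 Imaging in selection buffer was followed by imaging after 15 min with 500 uM ATP at 22 °C, for Cy3-labelled switching-strand clusters annealed to 100 nM quencher-labelled ATP aptamer on a modified Illumina MiSeq flow-cell. Five of these buffer/ATP cycles ran, separated by NaOH stripping and re-annealing. The fluorescence ratio per cluster is summed target-cycle over summed buffer-cycle Cy3 intensity, averaged per switch-domain sequence; clusters outside 100-1000 RFU were removed.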
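Also: ATP exposure 15 min at 22 °C before imaging.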

| Sequence | switch fluorescence ratio |
| --- | --- |
| ACACTCACGA | 1.32 |
| ACACTCATGC | 1.05 |
| ACACTCTCCA | 0.989 |
| ACACTGCAA | 2.24 |
| ACACTGGCGA | 0.919 |
| ACACTGTGAA | 1.05 |
| ACACTTAAAG | 1.02 |
| ACACTTAATA | 1.06 |
| ACACTTAGAG | 1.02 |
| ACACTTTGCG | 1.05 |
| ACAGAAAAGT | 1.04 |
| ACAGAGCAAA | 1.05 |
| ACAGAGCCGC | 1.08 |
| ACAGAGTTTG | 1 |
| ACAGATAACG | 1.06 |
| ACAGATACCA | 1.04 |
| ACAGATCTCG | 1.07 |
| ACAGCTAGTT | 1.05 |
| ACAGCTATTT | 1.06 |
| ACAGGACAGT | 1.06 |
| ACAGGAGCTG | 1.04 |
| ACAGGATTTT | 0.993 |
| ACAGGCTAAT | 1 |
| ACAGGCTTCT | 1.02 |
| ACAGGGATCT | 0.982 |

| Sequence | switch fluorescence ratio |
| --- | --- |
| ACAGGGCTGG | 1.01 |
| ACAGGGGCA | 1.08 |
| ACAGGGTTT | 0.979 |
| ACAGGTGGCC | 1.25 |
| ACAGTAAAT | 1.01 |
| ACAGTACCTT | 1.37 |
| ACAGTACGGT | 1.41 |
| ACAGTCACGG | 1.26 |
| ACAGTGACAA | 1.07 |
| ACAGTGATCT | 1.09 |
| ACAGTGCTGA | 1.06 |
| ACAGTGCTGG | 0.992 |
| ACAGTGGATA | 1.02 |
| ACAGTGGCGT | 0.983 |
| ACAGTTCAGT | 1.01 |
| ACAGTTGTGA | 0.964 |
| ACATAACCGG | 1.06 |
| ACATAACGTG | 1.14 |
| ACATAAGTAA | 1.03 |
| ACATACAGCG | 1.25 |
| ACATACTTCA | 1.36 |
| ACATACTTTC | 1.22 |
| ACATAGGTGC | 1.36 |
| ACATAGTTGT | 1 |
| ACATATGCAA | 1.16 |

| Sequence | switch fluorescence ratio |
| --- | --- |
| ACATCAGGGA | 1.02 |
| ACATCATATA | 1.07 |
| ACATCCAGGG | 1.67 |
| ACATCCCAGT | 1.06 |
| ACATCCGTAG | 1.18 |
| ACATCCTAAT | 0.987 |
| ACATCGAAGT | 1 |
| ACATCGCCTA | 1.07 |
| ACATCGGAGC | 1.04 |
| ACATCGGCGA | 1.03 |
| ACATCGTAC | 1.18 |
| ACATCTAA | 0.969 |
| ACATCTCGCG | 0.977 |
| ACATGAAGCG | 0.974 |
| ACATGCCGTT | 1.01 |
| ACATGCGGGA | 0.883 |
| ACATGGCCCG | 1.07 |
| ACATGTACG | 1.12 |
| ACATGTCAGG | 1.05 |
| ACATGTGCTT | 1.04 |
| ACATGTTCGG | 0.979 |
| ACATGTTTAC | 0.985 |
| ACATTAACTG | 1.1 |
| ACATTCAGAA | 0.961 |
| ACATTGCATG | 1.01 |

| Sequence | switch fluorescence ratio |
| --- | --- |
| ACATTGTGAC | 1.03 |
| ACATTTAACG | 1.04 |
| ACATTTACAG | 1.11 |
| ACATTTAGGA | 1.01 |
| ACATTTATTA | 0.987 |
| ACATTTGCTG | 1 |
| ACCAAAAAGT | 0.957 |
| ACCAACAAAA | 1.07 |
| ACCAACCAAA | 1.36 |
| ACCAACCCGA | 1.18 |
| ACCAACGCAG | 1.37 |
| ACCAAGCAGC | 1.16 |
| ACCAATAACT | 1.06 |
| ACCAATGCAG | 0.994 |
| ACCACCACGG | 1.16 |
| ACCAGACAT | 1.08 |
| ACCAGACGGG | 1.04 |
| ACCAGCGGAC | 1.28 |
| ACCAGGTTAA | 1.03 |
| ACCAGTCGCT | 0.984 |
| ACCAGTGACC | 1.04 |
| ACCAGTGCT | 1.13 |
| ACCAGTGGTC | 0.996 |
| ACCATAATGT | 1.05 |
| ACCATTCCTT | 1.05 |

| Sequence | switch fluorescence ratio |
| --- | --- |
| ACCCAAGTGG | 1.02 |
| ACCCACATAT | 1.36 |
| ACCCACGGAC | 1.62 |
| ACCCAGTAT | 1.05 |
| ACCCATTTTC | 1.05 |
| ACCCCAGCAA | 2.04 |
| ACCCCCATGT | 1.68 |
| ACCCCGGCCA | 1.08 |
| ACCCCTACGG | 1.34 |
| ACCCCTGTAC | 1.52 |
| ACCCGAGCTG | 1.06 |
| ACCCGTATGC | 1.3 |
| ACCCTAAGCG | 1.1 |
| ACCCTAGCCT | 1.13 |
| ACCCTCATTA | 1.06 |
| ACCCTCTTGG | 1.83 |
| ACCCTGTTTC | 1.01 |
| ACCCTTTAAT | 1.04 |
| ACCCTTTCCC | 1.12 |
| ACCGAATTGG | 1.02 |
| ACCGAGAGTA | 0.999 |
| ACCGAGGACA | 1.06 |
| ACCGATATTG | 1.02 |
| ACCGCAGCGG | 1.01 |
| ACCGCCGAGT | 1.12 |

| Sequence | switch fluorescence ratio |
| --- | --- |
| ACCGCGACCC | 1.55 |
| ACCGCGGTAT | 1.03 |
| ACCGCGTCTG | 1.02 |
| ACCGGAGCTC | 5.56 |
| ACCGGCTCCT | 1.11 |
| ACCGGGGCGC | 1.24 |
| ACCGGTAGAA | 0.993 |
| ACCGTAATGA | 1.23 |
| ACCGTAGGCT | 1 |
| ACCGTAGTGC | 1.71 |
| ACCGTCACTT | 1.31 |
| ACCGTCCTGG | 0.981 |
| ACCGTGACCG | 1.06 |
| ACCGTGGTCA | 1.01 |
| ACCGTTAATG | 1.06 |
| ACCGTTTCTC | 1.03 |
| ACCGTTTTAG | 1.04 |
| ACCTACAATG | 1.18 |
| ACCTACGCTA | 4.65 |
| ACCTAGAAGT | 0.987 |
| ACCTAGATGT | 1.07 |
| ACCTAGGGTA | 1.04 |
| ACCTAGGTAG | 1.02 |
| ACCTATCACC | 1.12 |
| ACCTCAACTA | 1.25 |

| Sequence | switch fluorescence ratio |
| --- | --- |
| ACCTCAGGAA | 1.25 |
| ACCTCCCCCT | 1.93 |
| ACCTCGGGGG | 1.74 |
| ACCTCGGTAC | 1.27 |
| ACCTCTCACT | 1.16 |
| ACCTCTTCTT | 1.01 |
| ACCTGAGGT | 1.03 |
| ACCTGATGTA | 0.962 |
| ACCTGCACTA | 1.37 |
| ACCTGCGGGA | 1.12 |
| ACCTGCTAGC | 1.03 |
| ACCTGGGGGT | 1.97 |
| ACCTGTAGCT | 1.05 |
| ACCTTAGAGG | 1.05 |
| ACCTTAGTGG | 1.01 |
| ACCTTATTTT | 1.02 |
| ACCTTGATGC | 1.05 |
| ACCTTGTCTT | 1.03 |
| ACCTTTATT | 1.04 |
| ACCTTTGCCA | 1.02 |
| ACCTTTGTAG | 1.04 |
| ACCTTTTCG | 1.14 |
| ACGAAACAG | 1.11 |
| ACGAAAGGTC | 1.01 |
| ACGAACTTTT | 1.22 |

| Sequence | switch fluorescence ratio |
| --- | --- |
| ACGAAGCGGC | 5.84 |
| ACGAAGGAGG | 0.988 |
| ACGAAGGGGA | 1.03 |
| ACGAATCACG | 1.05 |
| ACGACAAACG | 1.11 |
| ACGACAAATG | 1.04 |
| ACGACACTAG | 1.13 |
| ACGACAGACG | 1.14 |
| ACGACATGC | 1.37 |
| ACGACTGTCA | 1.07 |
| ACGAGAATGG | 1.05 |
| ACGAGGCTAT | 3.85 |
| ACGAGGGACG | 0.993 |
| ACGAGTAACA | 1.04 |
| ACGAGTCTTG | 0.963 |
| ACGATAGATC | 1.03 |
| ACGATAGCAT | 1.13 |
| ACGATATTAG | 1.13 |
| ACGATCATCT | 1.06 |
| ACGATCATTA | 1.09 |
| ACGATCGAAT | 1.11 |
| ACGATGAGAT | 1.05 |
| ACGATGCAGA | 1.01 |
| ACGATTAATA | 1.05 |
| ACGATTACCT | 1.41 |
